This test concerns NCI-H322M lung. Put plainly: inhibition of tumour cell growth, NCI panel, 48 h.

Molecules are shown by their SMILES.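 Five compound concentrations were applied to cells in 96-well plates for 48 hours; endpoints were derived by simple linear interpolation of the resulting dose-response curve. GI50 marks 50% less growth. At the TGI there is no net growth.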

On to `COc1cc2nc(-c3ccc(C(F)(F)F)cc3)cc(OCCCNCC3CCCO3)c2cc1OC` (configuration not stated), for which the GI50 was 10.6 µM and the TGI was 22.4 µM.
